Data reported in the supplement of paper PMC8728848.
This is one part of the list.

Tests used:
Experiment in all cases: glycan array binding signal (z-score within array); higher = stronger binding
Details in all cases: glycan notation: IUPAC condensed, linker removed
[1] = target: Gal(b1-4)GlcNAc(b1-3)Gal(b1-4)GlcNAc(b1-3)[Gal(b1-4)GlcNAc(b1-3)Gal(b1-4)GlcNAc(b1-6)]GalNAc
Procedure, shortened: (§1)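 Glycan array data came from 3228 arrays in the Consortium for Functional Glycomics database, and only arrays with an available protein sequence were kept. Glycan names were put into IUPAC-condensed notation, and columns mapping to the same glycan were averaged. The binding signal is a within-array Z-score, averaged across arrays of one protein sequence run at different concentrations or buffers and across linkers. A negative Z-score can be read as non-binding.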

[2] = target: Gal(b1-4)GlcNAc(b1-3)Gal(b1-4)GlcNAc(b1-6)[Gal(b1-3)]GalNAc
Procedure, shortened: as §1

[3] = target: Gal(b1-4)GlcNAc(b1-3)Gal(b1-4)[Fuc(a1-3)]GlcNAc(b1-3)Gal(b1-4)[Fuc(a1-3)]GlcNAc
Procedure, shortened: as §1

[4] = target: Gal(b1-4)GlcNAc(b1-3)GalNAc
Procedure, shortened: as §1

[5] = target: Gal(b1-4)GlcNAc(b1-3)[Fuc(a1-3)GlcNAc(b1-6)]Gal(b1-4)Glc
Procedure, shortened: as §1

[6] = target: Gal(b1-4)GlcNAc(b1-3)[Gal(b1-4)GlcNAc(b1-6)]Gal(b1-4)GlcNAc
Procedure, shortened: as §1

[7] = target: Gal(b1-4)GlcNAc(b1-3)[GlcNAc(b1-6)]Gal(b1-4)GlcNAc
Procedure, shortened: as §1

[8] = target: Gal(b1-4)GlcNAc(b1-6)Gal(b1-4)GlcNAc
Procedure, shortened: as §1

[9] = target: Gal(b1-4)GlcNAc(b1-6)GalNAc
Procedure, shortened: as §1

[10] = target: Gal(b1-4)GlcNAc(b1-6)[Gal(b1-3)]GalNAc
Procedure, shortened: as §1

[11] = target: Gal(b1-4)GlcNAc(b1-6)[Gal(b1-4)GlcNAc(b1-3)]GalNAc
Procedure, shortened: as §1

Gal(b1-4)GlcNAc6P = target: Gal(b1-4)GlcNAc6P
Procedure, shortened: as §1

Gal(b1-6)Gal = target: Gal(b1-6)Gal
Procedure, shortened: as §1

Gal3S(b1-3)GalNAc = target: Gal3S(b1-3)GalNAc
Procedure, shortened: as §1

Gal3S(b1-3)GlcNAc = target: Gal3S(b1-3)GlcNAc
Procedure, shortened: as §1

[12] = target: Gal3S(b1-3)[Fuc(a1-4)]GlcNAc
Procedure, shortened: as §1

Gal3S(b1-4)Glc = target: Gal3S(b1-4)Glc
Procedure, shortened: as §1

Gal3S(b1-4)Glc6S = target: Gal3S(b1-4)Glc6S
Procedure, shortened: as §1

Gal3S(b1-4)GlcNAc = target: Gal3S(b1-4)GlcNAc
Procedure, shortened: as §1

[13] = target: Gal3S(b1-4)[Fuc(a1-3)]Glc6S
Procedure, shortened: as §1

[14] = target: Gal3S(b1-4)[Fuc(a1-3)]GlcNAc
Procedure, shortened: as §1

[15] = target: Gal3S(b1-4)[Fuc(a1-3)]GlcNAc6S
Procedure, shortened: as §1

Gal3S4S(b1-4)GlcNAc = target: Gal3S4S(b1-4)GlcNAc
Procedure, shortened: as §1

Gal3S6S(b1-4)GlcNAc = target: Gal3S6S(b1-4)GlcNAc
Procedure, shortened: as §1

Gal3S6S(b1-4)GlcNAc6S = target: Gal3S6S(b1-4)GlcNAc6S
Procedure, shortened: as §1

Gal4S(b1-4)GlcNAc = target: Gal4S(b1-4)GlcNAc
Procedure, shortened: as §1

Gal4S6S(b1-4)GlcNAc = target: Gal4S6S(b1-4)GlcNAc
Procedure, shortened: as §1

Gal6P(b1-4)GlcNAc = target: Gal6P(b1-4)GlcNAc
Procedure, shortened: as §1

Gal6S(b1-3)GlcNAc = target: Gal6S(b1-3)GlcNAc
Procedure, shortened: as §1

Gal6S(b1-3)GlcNAc6S = target: Gal6S(b1-3)GlcNAc6S
Procedure, shortened: as §1

Gal6S(b1-4)Glc = target: Gal6S(b1-4)Glc
Procedure, shortened: as §1

Gal6S(b1-4)Glc6S = target: Gal6S(b1-4)Glc6S
Procedure, shortened: as §1

Gal6S(b1-4)GlcNAc = target: Gal6S(b1-4)GlcNAc
Procedure, shortened: as §1

Gal6S(b1-4)GlcNAc6S = target: Gal6S(b1-4)GlcNAc6S
Procedure, shortened: as §1

GalNAc(a1-3)Gal = target: GalNAc(a1-3)Gal
Procedure, shortened: as §1

GalNAc(a1-3)GalNAc = target: GalNAc(a1-3)GalNAc
Procedure, shortened: as §1

[16] = target: GalNAc(a1-3)GalNAc(b1-3)Gal(a1-4)Gal(b1-4)Glc
Procedure, shortened: as §1

B1: PVL (Psathyrella velutina), Q309D1_9AGAR (protein)
chain: MSVVVISQALPVPTRIPGVADLVGFGNGGVYIIRNSLLIQVVKVINNFGYDAGGWRVEKHVRLLADTTGDNQPDVVGFGENGVWISTNNGNNTFVDPPKMVLANFAYAAGGWRVEKHIRFMADLRKTGRADIVGFGDGGIYISRNNGGGQFAPAQLALNNFGYAQGWRLDRHLRFLADVTGDGLLDVVGFGENQVYIARNSGNGTFQPAQAVVNNFCIGAGGWTISAHPRVVADLTGDRKADILGFGVAGVYTSLNNGNGTFGAVNLVLKDFGVNSGWRVEKHVRCVSSLTNKKVGDIIGFGDAGVYVALNNGNGTFGPVKRVIDNFGYNQGWRVDKHPRFVVDLTGDGCADIVGFGENSVWACMNKGDGTFGPIMKLIDDMTVSKGWTLQKTVRYAANLYL
glycan array binding signal (z-score) [1]: -0.343 | glycan array binding signal (z-score) [2]: -0.354 | glycan array binding signal (z-score) [3]: -0.176 | glycan array binding signal (z-score) [4]: -0.258 | glycan array binding signal (z-score) [5]: -0.325 | glycan array binding signal (z-score) [6]: -0.306 | glycan array binding signal (z-score) [7]: 0.634 | glycan array binding signal (z-score) [8]: -0.366 | glycan array binding signal (z-score) [9]: -0.338 | glycan array binding signal (z-score) [10]: -0.073 | glycan array binding signal (z-score) [11]: -0.321 | glycan array binding signal (z-score) (Gal(b1-4)GlcNAc6P): -0.356 | glycan array binding signal (z-score) (Gal(b1-6)Gal): -0.37 | glycan array binding signal (z-score) (Gal3S(b1-3)GalNAc): -0.343 | glycan array binding signal (z-score) (Gal3S(b1-3)GlcNAc): -0.362 | glycan array binding signal (z-score) [12]: -0.366 | glycan array binding signal (z-score) (Gal3S(b1-4)Glc): -0.361 | glycan array binding signal (z-score) (Gal3S(b1-4)Glc6S): -0.368 | glycan array binding signal (z-score) (Gal3S(b1-4)GlcNAc): -0.367 | glycan array binding signal (z-score) [13]: -0.351 | glycan array binding signal (z-score) [14]: -0.357 | glycan array binding signal (z-score) [15]: -0.344 | glycan array binding signal (z-score) (Gal3S4S(b1-4)GlcNAc): -0.344 | glycan array binding signal (z-score) (Gal3S6S(b1-4)GlcNAc): -0.33 | glycan array binding signal (z-score) (Gal3S6S(b1-4)GlcNAc6S): -0.286 | glycan array binding signal (z-score) (Gal4S(b1-4)GlcNAc): -0.188 | glycan array binding signal (z-score) (Gal4S6S(b1-4)GlcNAc): -0.324 | glycan array binding signal (z-score) (Gal6P(b1-4)GlcNAc): -0.365 | glycan array binding signal (z-score) (Gal6S(b1-3)GlcNAc): -0.361 | glycan array binding signal (z-score) (Gal6S(b1-3)GlcNAc6S): -0.354 | glycan array binding signal (z-score) (Gal6S(b1-4)Glc): -0.36 | glycan array binding signal (z-score) (Gal6S(b1-4)Glc6S): -0.403 | glycan array binding signal (z-score) (Gal6S(b1-4)GlcNAc): -0.361 | glycan array binding signal (z-score) (Gal6S(b1-4)GlcNAc6S): -0.359 | glycan array binding signal (z-score) (GalNAc(a1-3)Gal): -0.363 | glycan array binding signal (z-score) (GalNAc(a1-3)GalNAc): -0.393 | glycan array binding signal (z-score) [16]: -0.352
